Over roughly 16,000 sequences, “Z-score” has its median near -0.37; the highest 2% begin near 3.1. Some of the results follow.
Test system: RBM10 RRM1-ZnF-RRM2 (GST-tagged construct)
Experiment: RNAcompete 7-mer binding Z-score; higher = stronger binding preference
In short: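 GST-tagged RBM10 constructs (20 pmol) were mixed with a designed pool of 241 399 RNAs up to 41 nt (1.5 nmol), transcribed from microarray-derived DNA templates. Mixing was in 1 ml Hepes pH 7.8 buffer with KCl, NaCl, glycerol, DTT, BSA and glutathione Sepharose beads. Binding ran 30 min at 4°C, followed by four 2-min washes at 4°C, and bound RNA was identified by microarray hybridisation. Each heptamer motif received a one-sided Z-score for enrichment across probes containing it.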

Sequence | RNAcompete 7-mer binding Z-score
AUCAAGU | -0.318
CACCGUC | -0.621
CGUUCCU | -0.843
AUCUAUC | -0.748
GAGCUGG | 1.63
GUAGUUA | 0.162
GAGGAGU | 1.43
ACUCUAC | -0.836
GAGCGUG | 1.1
AGCGACC | -0.256
ACUACCA | -0.719
UUUAGAU | -0.439
UGUCAUU | -0.741
GAAUCCG | -0.471
UGUGACG | 0.315
ACGUGCU | -0.672
GGCAAUA | 1.13
CUAGUCG | -0.555
GCCGUGG | 0.927
AUCUCGU | -0.755
GGACCCG | 0.246
ACGAACA | 0.00944
GCUGAUA | -0.278
GGGGGCG | 2.58

Sequence | RNAcompete 7-mer binding Z-score
AACUUAU | -0.69
CGCGCAG | 0.253
AACGGAC | 0.647
AAGACAA | 0.13
ACGCCUU | -0.865
AAAUGAU | 0.0313
GAGACGC | -0.0452
UCACUUG | -0.905
AGAAGGG | 4.09
ACAGGCA | 1.41
UAAAUGA | -0.187
GCCUCGA | -0.668
CGAUCCU | -0.836
AAUUGUA | -0.326
UCACCGA | -0.643
GAUAGCA | 0.232
CUGACCG | -0.672
GCCAUUU | -1.01
CUCCGGC | -0.759
UAUCGCA | -0.65
GCGCGGG | 2.1
UUUCCGA | -0.672
ACCAAAC | -0.519
UGCGCUC | -0.653

Sequence | RNAcompete 7-mer binding Z-score
AUAGAGG | 1.79
AGUAAUA | -0.18
ACAAGUA | -0.154
GACGGUU | 0.712
GGGUGAA | 3.66
AACAUUA | -0.202
AAAGAGA | 0.778
UGGCGGU | 1.54
UACCUAG | -0.763
CCACCAU | -0.664
AUUAACC | -0.643
UAUCGGU | -0.253
GCGUUGG | 1.26
GCGACUG | -0.027
ACGGGGU | 3.8
ACGGUGC | 0.348
UGUGUCC | -0.595
CCACUCC | -0.792
GACGGAU | 1.19
CAAAGCG | 0.177
CGUUAGG | 0.687
ACCAGAA | -0.264
CGGUACU | -0.122
CGUCAGA | -0.347

Sequence | RNAcompete 7-mer binding Z-score
UACAUGU | -0.246
UAUUACG | -0.311
CACGUGU | -0.5
ACCCCAC | -0.661
GCGAAUA | 0.173
UAUUUGG | -0.202
AGCCCCC | -0.34
GCUAUUG | -0.479
GGUAGAC | 2.01
CACAUUC | -0.715
CCUCAGA | -0.832
UCAAGCU | -0.621
GCGUGAA | 0.61
CCGACGU | -0.541
CCGUUGU | -0.595
CGAGAGA | 0.468
UAGGCCC | -0.439
ACUAAAC | -0.628
AUACGGC | 0.075
GCGAGUG | 1.73
CAUUGCC | -0.916
GUCUUGU | -0.548
ACCCAAU | -0.617
ACGUGUC | -0.551

Sequence | RNAcompete 7-mer binding Z-score
GCUAAGG | 0.869
CUUGCCC | -0.883
GACCUCU | -0.992
AAGGUGG | 4.32
GUAUAUU | -0.238
UGCAAGA | -0.0634
GUCGAAA | 0.104
GUCAAAC | -0.326
UUAUACC | -0.723
AGGUAAU | 1.5
AUAGCCC | -0.686
GGGUAGG | 4.42
AACCUCC | -0.854
UAGCACA | -0.242
CAGAUUA | -0.417
GACGCAA | -0.235
CUGACAC | -0.726
AUUAGUU | -0.442
GGGUUAC | 2.39
UAUGUCC | -0.785
CCUCAAC | -0.737
CUCGUAG | -0.475
CACAGCC | -0.657
CCUGUAG | -0.69

Sequence | RNAcompete 7-mer binding Z-score
UAAAUGC | -0.384
AGGGUAC | 2.7
GUUCGUA | -0.307
CGCUGGG | 1.38
ACCAGUC | -0.602
AAAACUU | -0.588
AGACGCG | -0.482
GUCCGAU | -0.606
AGGAAGC | 1.12
ACCUUAA | -0.894
AAUGCCU | -0.726
ACAUCCU | -0.839
AGCCUGA | -0.661
UAGUUCA | -0.548
AUUCUGA | -0.766
UCAAGCG | -0.238
CAUCCCG | -0.61
GAGUCGG | 1.55
CAAUUUA | -0.694
UGGCCGG | 0.665
GCUAGUC | -0.533
UGUUAGA | -0.078
UGAAAUA | -0.213
GGAUGGC | 2.46

Sequence | RNAcompete 7-mer binding Z-score
CGAUAAC | -0.435
CUGGCAC | -0.162
CUUUUCC | -0.704
CGGCAUG | 0.41
GCCUUGU | -0.923
CGCCACU | -0.788
CUAACAU | -0.541
ACGGUCA | 0.111
CUGAAGU | -0.347
CGGGCUA | 0.355
UUGCUUA | -0.781
UGCCGGG | 0.483
ACCUAAC | -0.832
GGUAGGA | 3.37
UGCGUCG | -0.0233
AGCACAU | -0.358
CAUUGGU | 0.00216
ACUCAUU | -0.927
UUUACCA | -0.694
CGCUAGU | -0.599
GUGGCCA | 0.403
CUGUUCU | -0.89
UUGCGUG | 0.0131
AUGAGGU | 1.83

Sequence | RNAcompete 7-mer binding Z-score
UCUCGUG | -0.471
GAACGGU | 1.56
CGUCUGG | -0.271
GUAUAGC | 0.294
UAUGCUG | -0.304
GACCGAC | -0.704
CACGUGC | -0.428
CUACCUC | -0.781
AUCCUUU | -0.894
GCUCCGU | -0.704
AAAGUAC | -0.0634
GUUCGAC | -0.337
ACCCUAA | -0.715
CUCACGG | -0.537
AUCAUAA | -0.38
UGCUAUC | -0.606
UGUAUCA | -0.326
GAUGCAU | -0.0634
CAACGAA | -0.337
UAUAGUG | 0.206
GAUUGCA | 0.00216
CAAUUAG | 0.0386
CUGAGGG | 1.53
ACUUGCU | -0.817

Sequence | RNAcompete 7-mer binding Z-score
AGAGUAA | 0.621
AUAGCGA | 0.341
UUACUUU | -0.876
GUAAGCC | -0.173
CAUAAGU | -0.417
GUACCGU | -0.0561
AGUAACU | -0.191
GAGAAGU | 0.905
CAUACGA | -0.46
GCUAACG | -0.169
AGUCUCC | -0.592
UAACAAU | -0.315
GAAGCAG | 1.26
CGAUUAC | -0.486
GAGAGAG | 1.09
CAGAAGC | -0.0161
GCUAGUG | 0.0422
UGCGUGU | -0.118
UUCAGCC | -0.795
ACUAUAA | -0.442
UAGCUUC | -0.77
UGUCCUC | -0.766
UUUCACA | -0.61
UGGGGAA | 3.58

Sequence | RNAcompete 7-mer binding Z-score
ACCUUCA | -0.945
ACCUUCC | -0.839
UGAUCCG | -0.65
UACUUAC | -0.533
AUCGUGC | -0.548
UGUGAGG | 1.89
GGUAAUC | 0.705
GGGGCUC | 1.23
UGCUUGG | -0.293
GAUAAGC | 0.144
GGAGAAU | 1.58
AAUGUAG | 0.793
ACUAGUA | -0.384
CAUGGAU | 1.09
UGAAUUU | -0.584
CAGGAUC | 0.275
UGACGCG | 0.0422
GAACUGA | -0.067

Reference: the supplement of paper PMC5499739
